Assay results from ChEMBL document CHEMBL1156829.
The full ranking holds about 5,400 compounds; the median of “IFI” is about 2, and the highest 2% start at about 22. The list shows a part of the results.

Experiment: NOVARTIS: Inhibition Frequency Index (IFI) - the number of HTS assays where a compound showed > 50% inhibition/induction, expressed as a percentage of the number of assays in which the compound was tested.
Assay type: functional

Row | SMILES | IFI
1 | CC1CCCN(c2ccc(C(=O)NC3CC3)cc2[N+](=O)[O-])C1 (centres undefined) | 0%
2 | O=C1c2ccccc2-c2nnc(-c3ccccc3)cc21 | 11%
3 | COc1cc(NC(C)CCCN(Cc2ccccc2OC)C(=O)C(C)C)c2ncccc2c1 (centres undefined) | 5.71%
4 | O=C(Nc1ccc([N+](=O)[O-])cc1Cl)c1cc(Br)ccc1O | 7.69%
5 | CCN1/C(=C/c2cccc[n+]2C)Sc2ccccc21 | 7.69%
6 | CCOC(=O)c1cnc2ccc(Cl)cc2c1NCCCN(C)C | 0%
7 | OC(CN1CCN(Cc2ccccc2)CC1)Cn1c2ccc(Br)cc2c2cc(Br)ccc21 (centres undefined) | 4.08%
8 | COc1ccc(C2=C(c3ccc(OC)cc3)C3C(=O)C2C2C(=O)N(c4cccc5ccccc45)C(=O)C32)cc1 (centres undefined) | 0%
9 | COc1cccc(Nc2nc(NCC3CCCO3)c3ccccc3n2)c1 (centres undefined) | 0%
10 | CC(C)C(=O)N1CCOc2c(cc(-c3csc4ccccc34)cc2OCCc2ccccn2)C1 | 1.92%
11 | CCOc1ccc(C2C(C(=O)OC)=CNC=C2C(=O)OC)cc1Cl | 0%
12 | CCCCCCN(C(=O)c1ccc(C(C)(C)C)cc1)C(CC)c1nc2cc(Cl)ccc2c(=O)n1CC (centres undefined) | 1.87%
13 | CC(=O)N(Cc1ccc(F)cc1)C1=C(NCc2ccccc2)C(=O)c2ccccc2C1=O | 23.1%
14 | CCCn1c(SCC(=O)N2c3ccccc3CC2C)nc2c1c(=O)n(C)c(=O)n2C (centres undefined) | 3.54%
15 | COc1ccc(N(CC(=O)NCCc2ccc(F)cc2)S(=O)(=O)c2ccccc2)cc1 | 0%
16 | O=C(NNC(=O)c1cccc(F)c1)C(=O)N1CCOCC1 | 0%
17 | CC(=O)Nc1ccc2c(c1)CCCC2 | 0%
18 | COc1ccc(S(=O)(=O)N2CCCCC2C(=O)NC(CN2CCCC2)c2ccccc2)cc1 (centres undefined) | 0.971%
19 | C=CCSc1nn2c(=O)c(C)nnc2s1 | 0%
20 | Cc1cc(S(=O)(=O)N2CCN(Cc3ccccc3)CC2)ccc1-n1cnnn1 | 1.61%
21 | NC(=S)NN=C1c2ccccc2-c2nc3nonc3nc21 | 0%
22 | COc1cc(COc2cc(N)c(Cl)cc2C(=O)CCC2CCN(CCNS(C)(=O)=O)CC2)cc(OC)c1 | 2.56%
23 | O=C(O[Si](c1ccccc1)(c1ccccc1)c1ccccc1)c1ccccc1 | 0%
24 | CC(=O)Nc1ccc(NC2=CC(=NS(=O)(=O)c3ccccc3)c3ccccc3C2=O)cc1 | 7.69%
25 | Cc1nc(N2CCC(C)CC2)c2c(C)c(C(=O)Nc3ccc(C(F)(F)F)cc3)sc2n1 | 0%

Row | SMILES | IFI
26 | CC(C)(C)CC(C)(C)Nc1c(-c2ccccc2OC(=O)c2ccc([N+](=O)[O-])cc2)nc2ccccn12 | 2.88%
27 | CCOC(=O)c1sc(Nc2c(Cl)cc(S(N)(=O)=O)cc2Cl)nc1C | 0%
28 | Nc1nnc(SCC(=O)Nc2nnc(SCC(=O)Nc3nccs3)s2)s1 | 3.37%
29 | O=C(NC1CCN(CC(O)CN(Cc2ccccc2)S(=O)(=O)c2ccccc2)C1)C1CCCCC1 (centres undefined) | 1.94%
30 | CCn1c(CSc2nc(C)cc(C)n2)nnc1SCC(N)=O | 2.7%
31 | COCCN1C(=O)c2[nH]nc(-c3ccccc3O)c2C1c1ccc(SC)cc1 (centres undefined) | 0%
32 | Cc1ccc2[nH]c(/C(C#N)=C/c3cn(Cc4ccc(Cl)cc4Cl)nc3-c3ccccc3)nc2c1 | 2.31%
33 | c1ccc(/C2=N/c3ccccc3/N=C(/c3ccccc3)c3ccccc32)cc1 | 1.15%
34 | CC(C)CCN1C(=O)N(CCN(C)C)C(=O)C12CCN(Cc1ccc(O)cc1)CC2 | 2.47%
35 | Cc1nc(NC(=N)N)nc2c(C)cccc12 | 4.54%
36 | CCCCNc1cc(C)nc(NCc2ccccc2)n1 | 8.33%
37 | Cc1cccc(NC(=O)/C(C#N)=C/c2ccc(C)o2)c1 | 9.09%
38 | CCc1cc(C(=O)OC)c(NC(=S)NC(C)c2ccncc2)s1 (centres undefined) | 0%
39 | CCCc1c(C)nc2ccc(C)cc2c1O | 0%
40 | CCN(CC)S(=O)(=O)c1ccc(-c2csc(=Nc3cccc4ccccc34)n2C)cc1 | 0%
41 | CC(C)CN1C(=O)c2ccccc2C(C(=O)Nc2cccc(C(F)(F)F)c2)C1c1cccs1 (centres undefined) | 3.03%
42 | CC(C)N1CC[C@@H](N2CCN(c3cccc(C(F)(F)F)c3)CC2)[C@@H](CCC(=O)N(C)C2CCN(C)CC2)C1 | 9%
43 | C1CCC(NP2(NC3CCCCC3)=NP(NC3CCCCC3)(NC3CCCCC3)=NP(NC3CCCCC3)(NC3CCCCC3)=N2)CC1 | 3.12%
44 | Cc1ccc(Nc2nc(-c3ccccn3)cs2)cc1 | 3.62%
45 | c1ccc2nc3c(nnc4ccccc43)nc2c1 | 15.4%
46 | Cc1ccc2nc3nc4c(C)cccc4c(N)c3cc2c1 | 8.96%
47 | O=C(Nc1ccc(-c2nc3ccccc3[nH]2)cc1)c1ccc(-c2cccc([N+](=O)[O-])c2)o1 | 5.77%
48 | COc1cccc(CNC(=O)C2CNCC2c2ccc(C(F)(F)F)cc2)c1 (centres undefined) | 1.39%
49 | CCOC(=O)C1CCN(C(=S)Nc2ccc3nsnc3c2)CC1 | 13%
50 | Cc1ccc(-c2nc(CS(=O)(=O)CC(=O)NC3CCC(C)CC3)c(C)o2)cc1 (centres undefined) | 0%

Row | SMILES | IFI
51 | O=C(Nc1ccc(C2=NCCN2)c(Cl)c1)c1cccc(C(=O)Nc2ccc(C3=NCCN3)c(Cl)c2)c1 | 0.917%
52 | CC(C)c1ccc(OCC(=O)NN=Cc2cccc([N+](=O)[O-])c2)cc1 | 0%
53 | NC(=O)C1CCCN(C(=O)COC(c2ccccc2)c2cccnc2Cl)C1 (centres undefined) | 1.94%
54 | O=[N+]([O-])c1ccc(N2CCCN(C(=S)Nc3ccc(F)cc3Br)CC2)nc1 | 0.84%
55 | COc1ccc(-c2csc(NC(=O)COc3ccccc3Cl)n2)cc1Br | 0%
56 | COc1cc(Cl)c(C)cc1NC(=O)C1c2ccccc2C(=O)N(CC(C)C)C1c1cccs1 (centres undefined) | 9.09%
57 | O=C(CCc1ccccc1)c1ccccc1OCC(O)CN1CCCCC1 (centres undefined) | 1.46%
58 | CC1=C(C(=O)OC(C)C)C(c2ccccc2F)C2=C(CC(C)(C)CC2=O)N1 (centres undefined) | 0%
59 | Cc1oc(-c2cccs2)nc1CN1CCC(CO)(CCOc2ccccc2)CC1 | 0%
60 | CCOC(=O)c1c(NC(=O)C(C)Sc2nnc(CNC(=O)c3ccco3)n2-c2cccc(C(F)(F)F)c2)sc2c1CCC2 (centres undefined) | 2.5%
61 | OC1=C2C(=Nc3ccccc3SC2c2ccco2)c2ccccc21 (centres undefined) | 1.5%
62 | Cc1cccc2nc(N)nc(N)c12 | 0%
63 | Cc1cc(Nc2cccc(C(F)(F)F)c2)nc(N)n1 | 0%
64 | Cc1ccccc1CSc1ccc(-c2cccs2)nn1 | 12.5%
65 | COc1cc([C@@H]2OC[C@@H]3[C@H]2CO[C@H]3c2cc(OC)c(O[C@@H]3O[C@H](CO)[C@@H](O)[C@H](O)[C@H]3O)c(OC)c2)cc(OC)c1O | 0%
66 | OC(COc1ccc(OCC(O)CN2CCN(CCOc3ccccc3)CC2)cc1)CN1CCN(CCOc2ccccc2)CC1 (centres undefined) | 7.14%
67 | CN1C(=O)N(C)C(NNC(N)=S)C1NNC(N)=S (centres undefined) | 14.3%
68 | Cc1cc(C)c2c(c1)OC(N)(C(Cl)(Cl)Cl)CC2=O (centres undefined) | 2.27%
69 | COc1ccc(C=NNc2nc(Nc3ccc([N+](=O)[O-])cc3)nc(N3CCN(C)CC3)n2)cc1OC | 5.88%
70 | CCCCNC(=O)c1ccc(OC2CCN(CC3CCCCC3)CC2)c(Cl)c1 | 1.41%
71 | COc1cc(C(=O)Nc2ccc3nc4n(c(=O)c3c2)CCCCC4)cc(OC)c1OC | 0%
72 | c1ccc(-c2cc(NCc3ccco3)nc(-c3ccccn3)n2)nc1 | 7.69%
73 | COC(=O)c1ccc(N(C(=O)Cc2c[nH]c3ccccc23)C(C(=O)NC2CCCCC2)c2cccnc2)cc1 (centres undefined) | 3.64%
74 | CC(=O)N(C1=C(N2CCCC2)C(=O)c2ccccc2C1=O)c1ccc(F)cc1 | 8.11%
75 | O=C(C1CC1)N1CCc2cc(Br)cc(S(=O)(=O)N3CCCC3)c21 | 0%

Row | SMILES | IFI
76 | CCOc1ccc(C2C(=O)N(C3CCCCC3)CC(=O)N2Cc2ccc(F)cc2)cc1OC (centres undefined) | 0%
77 | COc1ccc(CCNc2nc(NCCC3CCCN3C)ncc2C(=O)NCc2ccccc2)cc1OC (centres undefined) | 1.92%
78 | COc1cc(C=NNc2nc3ccccc3[nH]2)cc(Br)c1O | 7.69%
79 | N#CC(c1ccc(C(F)(F)F)cc1)c1ccc2c(C(F)(F)F)cc(C(F)(F)F)nc2n1 (centres undefined) | 26.3%
80 | Cn1nc(C(=O)N2CCCCCC2)c2c1CCC(NCC(C)(C)N1CCOCC1)C2 (centres undefined) | 1.21%
81 | Sc1nnc(-c2ccncc2)n1CCc1ccccc1 | 1.51%
82 | CCCCNC(=O)c1nn(-c2ccc(OC)cc2)c(=O)c2ccccc12 | 2.35%
83 | CCN(CC)S(=O)(=O)c1cc(S(=O)(=O)c2ccc(Cl)c(S(=O)(=O)N(CC)CC)c2)ccc1Cl | 1.49%
84 | CCn1c(-c2ccc(O)cc2)nn(CN2CCN(Cc3ccc4c(c3)OCO4)CC2)c1=S | 0%
85 | Cc1ccc2[nH]c3c(NCCN4CCCC4)ncnc3c2c1 | 8%
86 | CCn1c(N=Nc2ccc(OC)cc2)nc2ccccc21 | 7.69%
87 | COc1cc(-c2nc(-c3ccc(Sc4ccccc4)cc3)c(-c3ccccc3)[nH]2)cc(OC)c1O | 4.65%
88 | CCN(CC)Cc1cc(Nc2nc3ccccc3[nH]2)cc(CN(CC)CC)c1O | 0%
89 | Cc1cc(C)n2nc(-c3ccc(Cl)cc3)cc2n1 | 5.52%
90 | C/C(Cl)=C/Cc1c(C)nc2c(ccc3ccccc32)c1O | 0%
91 | O=C(NCCCCCCCCNC(=O)Nc1ccc(C2=NCCN2)cc1)Nc1ccc(C2=NCCN2)cc1 | 0%
92 | c1ccc(N=c2n(-c3ccccc3)c(=Nc3ccccc3)n(-c3ccccc3)c(=Nc3ccccc3)n2-c2ccccc2)cc1 | 0%
93 | Cc1cc(C)n(N=Cc2ccc(Cl)cc2)c(=O)c1C#N | 0%
94 | CCOC(=O)c1[nH]c(C)c(CNc2cccc(F)c2)c1C | 0%
95 | CCn1c(SCCNC(=O)CC(C)C)nc(-c2ccccc2)c1-c1ccccc1 | 3.81%
96 | CCN1/C(=C\C=C\C2=[N+](C)c3ccccc3C2(C)C)N(c2ccccc2)c2ccccc21 | 28.6%
97 | CCCCc1c(CCC)c(=N)c2ccccc2n1C | 4.54%
98 | COc1cc(OC)c(NC(=O)c2ccc(N3CC4CC(C3)c3cccc(=O)n3C4)c([N+](=O)[O-])c2)cc1Cl (centres undefined) | 0%
99 | CCN1CCC(NC2CCCc3c2[nH]c2ccc([N+](=O)[O-])cc32)CC1 (centres undefined) | 7.14%
